Results taken from article PMC6919601, “Identification of Plasmodium dipeptidyl aminopeptidase allosteric inhibitors by high throughput screening” (PLoS ONE, 2019).
Screen size: about 110,000 compounds; about 230 (0.21%) showed an effect of 50% or more. This is one part of the list.

These compounds were tested against DPAP1 (Plasmodium falciparum, UniProt Q8IIJ9) (assay: primary screen, percent inhibition; read by cleavage of a fluorogenic dipeptide substrate; higher = more effect of the substance).
Chain of DPAP1 (Q8IIJ9 whole entry, looked up): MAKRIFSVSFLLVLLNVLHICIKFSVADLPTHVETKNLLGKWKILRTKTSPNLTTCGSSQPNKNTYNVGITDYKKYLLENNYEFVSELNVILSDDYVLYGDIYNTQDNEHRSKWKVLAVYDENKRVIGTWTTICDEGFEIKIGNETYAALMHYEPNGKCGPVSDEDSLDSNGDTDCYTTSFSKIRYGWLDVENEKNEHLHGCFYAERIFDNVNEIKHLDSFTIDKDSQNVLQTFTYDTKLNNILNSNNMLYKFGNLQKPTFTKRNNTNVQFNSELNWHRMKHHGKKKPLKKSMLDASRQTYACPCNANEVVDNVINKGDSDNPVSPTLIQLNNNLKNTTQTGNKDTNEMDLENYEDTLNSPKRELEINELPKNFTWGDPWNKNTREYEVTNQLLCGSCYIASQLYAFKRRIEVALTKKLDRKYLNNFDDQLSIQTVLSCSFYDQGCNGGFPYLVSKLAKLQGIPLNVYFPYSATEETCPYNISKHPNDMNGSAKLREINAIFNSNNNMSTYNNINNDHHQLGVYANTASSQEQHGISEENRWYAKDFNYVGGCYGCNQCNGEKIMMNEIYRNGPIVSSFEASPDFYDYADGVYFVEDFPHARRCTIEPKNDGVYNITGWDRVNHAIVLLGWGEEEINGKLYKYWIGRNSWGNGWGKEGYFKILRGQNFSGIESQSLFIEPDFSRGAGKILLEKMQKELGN
Parameters: species or system P. falciparum D10 trophozoite lysates; single well
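Also: 30 min substrate incubation versus DMSO and 10 µM JCP410 controls.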

Structure (SMILES) | % Inhibition @ 10 uM [%]
O=C(CN1C(=O)CSC1=O)N1CCc2ccccc2C1 | 2.57
CCOC(=O)c1c(C)n(C)c2ccc(O)cc12 | -4.77
CCCOc1ccc2oc(-c3ccc(OC)cc3)cc(=O)c2c1 | -7.56
O=C(NCCC1=CCCCC1)Nc1noc2c1COc1ccccc1-2 | 1.69
Cc1cc(-c2cccs2)c2c(N)c(C(=O)c3ccccc3)sc2n1 | 4.67
CCn1cc(/C=C2/NC(=O)N(Cc3ccc(C)cc3)C2=O)c2ccccc21 | 2.44
CCN(CC)Cc1cc(NC(C)=O)ccc1O | 1.7
CCOCCCN1C(=O)c2[nH]nc(-c3ccccc3O)c2C1c1ccc(C(=O)OC)cc1 (stereo not drawn) | -3.49
Cc1ccc(CCNC(=O)C2CCC(=O)N2C2CCCCC2)cc1 (stereo not drawn) | -5.07
CCCC(=O)Nc1ccc(C(=O)N2CCN(c3cccc(C(F)(F)F)c3)CC2)cc1 | 1.83
Cc1ccsc1C1C(C#N)=C(N)SC(N)=C1C#N | 27.5
CC(NC(=O)Cc1cccs1)c1ccc(O)cc1 (stereo not drawn) | 4.19
CCCOc1ccc(C(=O)C2=C(O)C(=O)N(c3ccccn3)C2c2ccccc2F)cc1C (stereo not drawn) | 1.52
O=C(NC1CCCC1)c1sc2ccccc2c1Cl | -0.941
O=C(c1ccc(Cn2cc(Br)cn2)o1)N1N=C(C(F)F)CC1(O)C(F)F (stereo not drawn) | -3.71
O=[N+]([O-])c1ccc(CN2CCN(c3ccccc3)CC2)cc1 | -3.56
CC(C)Cn1cc(NC(=O)NC2CCCCC2)c2ccccc2c1=O | -3.29
CCC(=O)Nc1nonc1-c1nc2ccccc2n1Cc1cc2c(cc1Br)OCO2 | 2.25
COc1ccc(-c2nc3cc(Cl)ccc3[nH]2)cc1OC | -4.39
CCOc1ccc(NC(=O)c2cccc(Br)c2)cc1 | -5.41
Cc1noc(/C=C/N(C)C)c1S(=O)(=O)N1CCCC(C(=O)NCc2ccccc2Cl)C1 (stereo not drawn) | -8.42
CCO/C(O)=C1/C(C)=Nc2ncnn2C1c1ccc(OC(F)F)cc1 (stereo not drawn) | -3.37

Structure (SMILES) | % Inhibition @ 10 uM [%]
Cc1ccc(C(=O)N(Cc2ccc(Cl)cc2)Cc2ccco2)cc1 | 1.25
CCOC(=O)c1cn(-c2ccccc2)nc1-c1ccc(OC)c(OC)c1 | 2.38
CCOc1cccc(-c2cc(C(=O)Nc3sc(C)cc3C(=O)OC)c3ccccc3n2)c1 | -3.02
CN(C)CCNC(=O)C1CCCN(c2ncnc3c2nc2n3CCCCC2)C1 (stereo not drawn) | 2.59
CCN1CCN(C(CNC(=O)C(=O)NCCCc2ccccc2)c2cccnc2)CC1 (stereo not drawn) | -7.29
c1cncc(CNc2c3ccccc3nc3ccccc23)c1 | 1.58
Nc1n[nH]c(SCC(=O)c2ccc(Cl)cc2)n1 | 1.27
Cc1ccc(-c2ccccc2)nc1C | -2.28
CC(NC(=O)CCc1ccc(-n2cnc3cccnc32)cc1)c1ccccc1 (stereo not drawn) | 5.87
Cc1ccc(Cn2c(=N)c(S(=O)(=O)c3ccc(C)cc3)cc3c(=O)n4ccccc4nc32)cc1 | -0.446
CCOCCCNC(=O)Nc1cn(C)c(=O)c2ccccc12 | 6.64
c1cc(-c2nnc(-c3ccncc3)o2)ccn1 | -4.08
Cc1ccc(OCCn2ccnc2)c(Cl)c1 | 2.22
c1ccc2oc(-c3nn4c(Cn5nnc6ccccc65)nnc4s3)cc2c1 | 7.31
OC(CN1CCC2(CC1)OCCO2)c1ccc2cc[nH]c2c1 (stereo not drawn) | 5.53
COC(=O)c1cc2oc3ccccc3c2n1CC(=O)NCCC1=CCCCC1 | -3.34
COc1ccc(-n2cnc3cc(NC(C)=O)ccc32)cc1 | 3.65
CCN(CC)S(=O)(=O)c1ccc2oc(C(=O)NCCc3ccc(OC)c(OC)c3)c(C)c2c1 | -1.07
CC(=O)N(CN1C(=O)c2cc(Cl)c(Cl)cc2C1=O)c1ccccc1C | -1.96
COc1ccc(/C=N/N=C(\N)c2nonc2N)cc1OC | 2.24
Fc1ccc(-c2nnc(-c3ccc(F)cc3)o2)cc1 | 20.7
O=C(CCN1C(=O)c2ccccc2C1=O)N1CCN(c2ccccn2)CC1 | -2.53

Structure (SMILES) | % Inhibition @ 10 uM [%]
CCC(CC)NCc1ccc2c(c1)c1ccccc1n2CC | -3.74
CCOc1ccccc1CNC(=O)c1cc2sc(C)cc2n1C | -4.85
CC1=C(C(=O)OCC2CCCO2)C(c2cccc(O)c2)NC(=O)N1 (stereo not drawn) | 4.35
COc1ccc(C2CC(=O)N3C(=C2C#N)SCC3(O)c2ccccc2)cc1 (stereo not drawn) | 0.66
CCn1c(C)c(C)c2cc(C(=O)NCc3ccc(C)cc3)ccc21 | -2.83
Cc1cc(C)cc(C(=O)N[C@@H](Cc2cc(I)c(O)c(I)c2)C(=O)NCC#N)c1 | -3.04
CN1CCN(CCCn2cnc3c2c(=O)n(C)c(=O)n3C)CC1 | -5.26
COCCn1c(N2CCOCC2)nc2c1c(=O)n(C)c(=O)n2C | -4.67
O=S(=O)(c1ccc2c(c1)Cc1ccccc1-2)N1CCCCC1 | -1.41
O=[N+]([O-])c1ccc(Oc2ccc(S(=O)(=O)NCc3ccccc3)cc2)cc1 | -4.35
CC(C(O)C12CC3CC(CC(C3)C1)C2)N(C)C (stereo not drawn) | 3.05
C(#Cc1csc2ccccc12)c1ccccc1 | -4.91
CCCCCC(=O)Nc1ccc(NC(C)=O)cc1 | 2.01
O=C1S/C(=C\c2ccc(F)cc2)C(=O)N1CN1CCCC1 | 0.331
O=C(O)CCCCn1c(SCc2ccccc2Cl)nc2ccsc2c1=O | 8.15
CCc1ccc(C2CC(=O)NC(SCC(=O)Nc3ccccc3)=C2C#N)cc1 (stereo not drawn) | -2.54
CCC(C)NC(=O)C1CCN(S(=O)(=O)c2ccc3nc(O)ccc3c2)CC1 (stereo not drawn) | 2.51
COc1ccccc1/N=c1\scc(-c2ccc(S(=O)(=O)N3CCOCC3)cc2)n1CC(C)C | 8.08
COc1ccc2nc(N3CCOCC3)cc(C)c2c1 | -3.48
Nc1cccc(NC(=O)c2cc(F)c(F)cc2Cl)c1 | -1.88
CCN(Cc1nc(-c2ccc(OC)cc2)no1)S(=O)(=O)c1c(C)cc(C)cc1C | -2.71
CN1CCN(C(=O)c2ccc3c(c2)sc2nc(-c4ccc(F)cc4)cn23)CC1 | 18.7
